Reference: ChEMBL document CHEMBL1201862, “PubChem BioAssay data set” (2004)
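Results reflect a 48-hour exposure of cells in 96-well plates to compound at five concentrations. GI50 is the concentration that inhibits growth by half.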 Calls of active or inactive are those of the source. Cut-off read from the data, not from the text of the source: active = GI50 up to about 1.1 µM and inactive = higher.

Columns and labels:
Experiment in all cases: NCI tumour cell line growth inhibition, 48 h
[1] = tested on: PC-3
[2] = tested on: MCF7
[3] = tested on: HCC 2998
[4] = tested on: BT-549
[5] = tested on: OVCAR-4
[6] = tested on: OVCAR-3
[7] = tested on: K562
[8] = tested on: UACC-257
[9] = tested on: SK-OV-3
[10] = tested on: SF-268
[11] = tested on: MDA-MB-435
[12] = tested on: HCT-116
[13] = tested on: SK-MEL-28
[14] = tested on: HOP-92
[15] = tested on: A498
[16] = tested on: Hs-578T
[17] = tested on: KM12
[18] = tested on: RXF 393
[19] = tested on: HCT-15
[20] = tested on: SF-295
[21] = tested on: MDA-MB-231
[22] = tested on: NCI-H23
[23] = tested on: OVCAR-8
[24] = tested on: NCI/ADR-RES
[25] = tested on: TK-10
[26] = tested on: SW-620
[27] = tested on: RPMI-8226
[28] = tested on: NCI-H522
[29] = tested on: NCI-H226
[30] = tested on: COLO 205
[31] = tested on: SNB-75
[32] = tested on: ACHN
[33] = tested on: CAKI-1
[34] = tested on: EKVX
[35] = tested on: A549
[36] = tested on: M14
[37] = tested on: HOP-62
[38] = tested on: NCI-H460
[39] = tested on: MDA-N
[40] = tested on: LOX IMVI
[41] = tested on: T47D
[42] = tested on: U-251
[43] = tested on: SN12C
[44] = tested on: SK-MEL-2
[45] = tested on: UACC-62
[46] = tested on: 786-0
[47] = tested on: UO-31
[48] = tested on: SNB-19
[49] = tested on: OVCAR-5
[50] = tested on: MOLT-4
[51] = tested on: DU-145

Measured: GI50

O=C1Cc2c([nH]c3ccc(Br)cc23)-c2cccc(O)c2N1
11.9 µM: [19]
inactive: [1] 48.8 µM | [2] 20.2 µM | [3] 27 µM | [4] 16 µM | [5] 67.9 µM | [6] 21.9 µM | [7] 14.7 µM | [8] 27.2 µM | [9] 49 µM | [10] 30.1 µM | [11] 49.8 µM | [12] 50.6 µM | [13] > 100 µM | [14] > 100 µM | [15] > 100 µM | [16] 21.2 µM | [17] 29.5 µM | [18] 27.4 µM | [20] 55.7 µM | [21] > 100 µM | [22] 16.8 µM | [23] 18.2 µM | [24] 18.8 µM | [25] 29.3 µM | [26] 97.5 µM | [27] 4.28 µM | [28] 14.4 µM | [29] 72.6 µM | [30] > 100 µM | [31] 26.8 µM | [32] 60.4 µM | [33] > 100 µM | [34] 86.5 µM | [35] 69.7 µM | [36] 78 µM | [37] 23.6 µM | [38] 20.4 µM | [39] > 100 µM | [40] 21.5 µM | [41] 6.11 µM | [42] 45.3 µM | [43] > 100 µM | [44] 70 µM | [45] 50 µM | [46] > 100 µM | [47] 48.4 µM | [48] 83.9 µM | [49] > 100 µM | [50] 12.6 µM | [51] 27.4 µM
